Test results reported in PubChem BioAssay (NCATS).
“And” between values parts separate entries of the source, which are not always exact repeats. Equal values may be shown once. The list shows a part of the results. Further columns of the screen follow, without active or inactive calls. For some assays here: Most of these compounds were active or inconclusive in the main read-out, so they are no random draw. Potencies come from curve fits of mixed quality, noted in brackets.

How the values were obtained:
[1] = qHTS Assay for Lipid Storage Modulators (AID 1519); details: Drosophila S3 cells, BODIPY lipid droplet/cell ratio, laser cytometry, cells loaded with oleic acid
In short: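 Cells seeded at 5,000 per well were treated with compounds over a concentration series and loaded with oleic acid (400 uM, as added). Lipid droplet fluorescence (488 nm excitation, 500-530 nm channel) was read by laser-scanning cytometry and normalized to 20 uM Triacsin C.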

[2] = qHTS assay for small molecule antagonists of peroxisome proliferator-activated receptor gamma signaling (AID 588537); details: HEK293 PPARg-UAS-bla, beta-lactamase ratio, antagonist mode; measured here: W460 blue channel
In short: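 PPAR-gamma-UAS-bla HEK293 cells (3000/well, 1% charcoal/dextran-stripped FBS) were preincubated 6-6.5 h at 37 C, given titrated compounds, then stimulated with 50 nM rosiglitazone for 16 h. Beta-lactamase activity was read with CCF4 dye; IC50 came from Hill fits.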

[3] = A High-Content qHTS Against Drug Library for the Identification of Small Molecules that Inhibit DYT1 Early Onset Primary Dystonia-Associated Cell Pathology (AID 1645839); details: HEK293 Flp-In EGFP-delE TorsinA, punctate imaging, 48 h; measured here: cell count cytotoxicity
In short: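 Readout: %pathology, the punctate EGFP-TorsinA distribution from imaging, as the primary channel and cell count as the toxicity counterscreen. HEK293 Flp-In cells expressing delE TorsinA were induced with tetracycline and treated with compound for 48 h.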

[4] = NCATS anti-infectives library activity on the primary C. elegans qHTS viability assay (AID 1745855); details: C. elegans worm area imaging
In short: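 Viability is taken from GFP fluorescence of PE254-GFP-FLuc C. elegans imaged by laser cytometry over 7 days. Ten L1 worms per well grow at 21 °C on TOP10 E. coli capsules with titrated compound; levamisole marks toxicity.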

[5] = qHTS drug screen for cell cycle checkpoint inhibitors in PARPi-resistant BRCA-mutant ovarian cancer cell lines. (AID 1963452); details: PEO1/OlaR viability, CellTiter-Glo luminescence, 96 h
In short: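 PEO1, PEO4 and PEO1/OlaR ovarian cancer cells, 600 per well, exposed 96 h at 37C to a dilution series. Viability read by CellTiter-Glo luminescence, normalized to DMSO and empty wells; activity summarized as Z-AUC.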

[6] = qHTS for identification of novel therapeutic agents for treatment of microphthalmiaassociated transcription factor (MiT) renal cell carcinoma (RCC) (AID 1963991); details: CellTiter-Glo, 48 h; for z-score: stronger effect = lower value
In short: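 Curves over 11 concentrations were fitted to CellTiter-Glo luminescence, scaled between empty wells (0%) and DMSO (100%) viability. Cells were UOK109, UOK124 and UOK145 TFE3-fusion RCC lines at 500/well, exposed 48 hours at 37 C.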

[7] = measured here: cell count channel max response
[8] = measured here: cell number channel AC50
[9] = measured here: lipid (BODIPY) channel AC50
[10] = measured here: lipid channel max response
[11] = measured here: PEO1 parental viability
[12] = TFE3-RCC UOK109 viability, measured here: UOK109 Z-AUC
[13] = TFE3-RCC viability, measured here: UOK124 Z-AUC
[14] = TFE3-RCC viability, measured here: UOK124 cell viability
[15] = TFE3-RCC viability, measured here: UOK145 Z-AUC
[16] = TFE3-RCC viability, measured here: UOK145 cell viability
Tags describe the fitted curve by direction and shape.

With CC(=O)N[C@@H](CS)C(=O)O the max response [1, 7] was -41.8%, the AC50 [1, 8] was 7.94 µM [falling, full curve, poor fit] and the AC50 [1, 9] was 12.6 µM [falling, partial curve, poor fit]. For the same compound, the max response [1, 10] was -43.1%, the AC50 [2] was 1.58 nM [falling, full curve, poor fit] and the AC50 [3] was 11.2 µM [falling, partial curve, poor fit].

With COc1c(O)cc2oc3cc(O)c(CC=C(C)C)c(O)c3c(=O)c2c1CC=C(C)C the max response [1, 7] was -21% and -70.5% and -72%, the AC50 [1, 8] was 25.1 µM [falling, partial curve] and 35.5 µM [falling, single point] and the AC50 [1, 9] was 22.4 µM [falling, single point] and 22.4 µM [falling, partial curve] and 25.1 µM [falling, partial curve, poor fit]. The max response [1, 10] was -67.7% and -96.5% and -83.4%, the AC50 ([4]; day 7, measured here: worm number) was 9.16 µM [falling, partial curve, poor fit] and the AC50 ([4]; day 7, measured here: worm area, day 3) was 1.83 µM [falling, full curve, poor fit]. For the same compound, the AC50 ([4]; day 7, measured here: worm number, day 3) was 5.78 µM [falling, full curve, poor fit].

For CCCCCCCCCCCC1=C(O)C(=O)C=C(O)C1=O, the max response [1, 7] was 50%, the AC50 [1, 8] was 15.8 µM [rising, full curve, poor fit] and the AC50 [1, 9] was 15.8 µM [rising, full curve, poor fit]. For the same compound, the max response [1, 10] was 69%, the AC50 [5, 11] was 5.49 µM [rising, partial curve] and the z-score [6, 12] was -0.671. For the same compound, the z-score [6, 13] was -0.965, the AC50 [6, 14] was 4.18 µM [falling, partial curve] and the z-score [6, 15] was 0.109. The AC50 [6, 16] was 2.64 µM [falling, full curve].

In the case of CCCCc1oc2ccccc2c1C(=O)c1cc(I)c(OCCN(CC)CC)c(I)c1, the max response [1, 7] was -12.4% and -38.5%, the AC50 [1, 8] was 0.00224 µM [rising, full curve, poor fit] and the AC50 [1, 9] was 25.1 µM [falling, partial curve, poor fit]. The max response [1, 10] was -22.3% and -40.7%, the AC50 [3] was 7.94 µM [falling, partial curve] and the AC50 [5, 11] was 24.5 µM [falling, single point]. For the same compound, the AC50 ([5]; measured here: PEO4 viability) was 17.4 µM [falling, single point], the z-score [6, 12] was -1.39 and the z-score [6, 13] was 0.446. For the same compound, the AC50 [6, 14] was 33.2 µM [falling, single point], the z-score [6, 15] was -0.916 and the AC50 [6, 16] was 4.18 µM [falling, full curve].
